Assay results published in the supplement of paper PMC7125110.
± gives the standard error. Variants at the floor of the assay are shown more often than the library holds them.

B1: glmS ribozyme (parent)
chain: AUAAAAGCGCCAGAACUACAGAAAUGUAGUUGACGAGGAGGAGGUUUAUCGAAUUUUCGGCGGAUGCCUCCAAA

Variants of: B1
Assay: self-cleavage kobs at 2500 uM GlcN6P; higher = faster cleavage; RNA array
Conditions: with glucosamine-6-phosphate
Outline: (§1)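 kcat and KM were obtained from weighted Michaelis–Menten fits across concentrations of kobs values. Those came from one- or two-exponential decay fits to per-tile medians normalised to baseline and to non-cleaving reference variants. The variants were barcoded ribozymes transcribed in situ by E. coli RNA polymerase on sequenced MiSeq chips and tracked through a hybridised Cy3 probe at 37 °C, with 40 μM to 10 mM glucosamine-6-phosphate in HEPES/KCl/Mg(OAc)2 buffer flowed in.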

Variant | self-cleavage kobs at 2500 uM GlcN6P [s⁻¹]
C10U C11A G66A | < 1e-05
G7A A42U | < 1e-05
G29C A36C U46G G63C | < 1e-05
U2C C61G | < 1e-05
A6G U54A C61A | < 1e-05
A36C A64G | < 1e-05
A42U U49C | < 1e-05
A15C U30A U31C C71G | 0.000148 ± 5.9e-05
A14U C16U U47G C58U G60A U69G | 0.000102 ± 2.6e-05
A12U A15C G37A G44A A52U | < 1e-05
A12C G40U G44U | < 1e-05
A6G C10G A36G U47C | < 1e-05
G7U G41C C61U | < 1e-05
A6U C34A G44A | < 1e-05
G9C C50U A52G | < 1e-05
A6U A36C U55G | < 1e-05
C10U G29C A36G G41U U54A | < 1e-05
G13C G38A | < 1e-05
C11U U31C C50U | < 1e-05
C11A A14C A42C U55C A64G | < 1e-05
G13A A33C A48C | < 1e-05
C8G G32A A33U U45A U57C C58A | < 1e-05
A12C A33G C34U C50A A64U C70G | 0.00011 ± 4.2e-05
G7U C8U G41U U55G | < 1e-05
G13U G37U A53G G59A | < 1e-05

Variant | self-cleavage kobs at 2500 uM GlcN6P [s⁻¹]
A12U G41U A42G G51C | < 1e-05
C8U C10U A12C G32A C61U G63A C67G C71G | < 1e-05
C8A C11U C70U | < 1e-05
A33U A42C C50U | < 1e-05
C10U G60C G63U | < 1e-05
C10G A42C U45G | < 1e-05
C8A G66A | < 1e-05
A6U C50U | < 1e-05
U31G C58A C67G | 6.38e-05 ± 2e-05
G32C G38U G43A C67A | < 1e-05
A6C A42U G59U | < 1e-05
G9A G29C G35A G44U U46A A64C | < 1e-05
G9C G35U G63C | < 1e-05
A6U G32C C34U | < 1e-05
A6C G35A U47C G60U | < 1e-05
G7C G32U U45C U49C | < 1e-05
G7A C16A A39U G40A | < 1e-05
A15U A39G G51A | < 1e-05
C8A U54C G63C | < 1e-05
C8U C11G C34G G51U U55A A64G | < 1e-05
C8G C10G A14U G60C C70U | < 1e-05
A12U C61A G63C C70U | 4.79e-05 ± 1.7e-05
U31A A42U C50G | < 1e-05
G32A A36G U54C | < 1e-05
A6G G13U G37A A53C | < 1e-05

Variant | self-cleavage kobs at 2500 uM GlcN6P [s⁻¹]
G9U C11G C70U | < 1e-05
C8G U69A | < 1e-05
C10G G44U C71A | < 1e-05
C8A G60A C68A | < 1e-05
G9C C10A C11U C34U A48C C58G | < 1e-05
G9A G37A G60A | < 1e-05
C11U U31A G41A U55C | < 1e-05
C11U G38C C61U | < 1e-05
A15U A33C U47A A53U C58G | < 1e-05
G9U C10U A33U U47G | < 1e-05
C16G U49C A64G | < 1e-05
C10G A39U G44U | < 1e-05
C11A C34G U49A | < 1e-05
C16U U57A C70G | 5.1e-05 ± 2.1e-05
C10U A42U C50U G51A | < 1e-05
A14U U47C G60A G62C | < 1e-05
U30A G37U A48U C58A G66U | < 1e-05
U31A A36G G63A A64U C71U | < 1e-05
A6C U55G C71U | 6.13e-05 ± 2e-05
G32C G35U U54G | < 1e-05
G32A G51U U54A | < 1e-05
A12G A52U C70A | < 1e-05
G29A U30C A42G G62A | < 1e-05
A14U G37U G41A G51A C70A | < 1e-05
G7U A14G A33C | < 1e-05

Variant | self-cleavage kobs at 2500 uM GlcN6P [s⁻¹]
A6C G13U C68U | < 1e-05
G9U C16G A33G U65C | < 1e-05
A6G C10U G35U G40U | < 1e-05
C16A A36G G41A | < 1e-05
A6U G32U G40U A42C U65G | < 1e-05
A6G A39C G41C C70U C71G | < 1e-05
C16G G32U U49A | < 1e-05
G35A C68U | < 1e-05
G32A A33G G63U | < 1e-05
G9C G40U U54A G62C G63U | < 1e-05
C16G G37U A42U A52U | < 1e-05
A15G A48C G59A C68U C70G | < 1e-05
A14G G35U U49A | < 1e-05
G37C U45G U57A G60A | < 1e-05
C11G C50A A52U | < 1e-05
U30A A39G G41C G44A G60C U65G | < 1e-05
U46A G60C G63A | < 1e-05
G9U U31G G38A | < 1e-05
A14G G37A G38A A52C A53C C70A C71U | < 1e-05
G9C A48G C67U | < 1e-05
A15C G43U C68U U69A | < 1e-05
C16G U30C G32C C58G | 5.09e-05 ± 2.2e-05
G9U G29U G35U G38C U45G U49A | < 1e-05
A12G U47A G59U | < 1e-05
C16G U65A C71U | 0.000341 ± 8.1e-05

Variant | self-cleavage kobs at 2500 uM GlcN6P [s⁻¹]
G7A A39C G59C C70U | < 1e-05
C11U G41U G43C A52G C68U | < 1e-05
C8U U55G C61U C68A | < 1e-05
G29U A42U A48U G62A | < 1e-05
G29C U31G C71A | < 1e-05
A15U C58G C68U | 6.36e-05 ± 2.9e-05
G29U U30A G35C A36C G41C U45C | < 1e-05
A6U A14C G35A | < 1e-05
U57G G62C A64U | < 1e-05
C16U G41A C67U | < 1e-05
G7A G13A U30C C34U C70U | < 1e-05
C8U C10A A15C | < 1e-05
G9U A14G C61A A64G C70G | 6.76e-05 ± 2.1e-05
C8G U31A | < 1e-05
C11A A52U U65C | < 1e-05
A6U G44U G63C | < 1e-05
C19A G29A C34U U47C | < 1e-05
A6U A52G U55C | < 1e-05
A6U G9A G32A C70A | < 1e-05
A6C U49C G59U U65A | < 1e-05
C11U C16U G51C C70U | < 1e-05
C10A C34U G43C U56C A64C | < 1e-05

Variants of: B1
Assay: self-cleavage kobs at 10000 uM GlcN6P; higher = faster cleavage; RNA array
Conditions: with glucosamine-6-phosphate
Outline: as §1

Variant | self-cleavage kobs at 10000 uM GlcN6P [s⁻¹]
G7A A42U | < 1e-05
A42U U49C | < 1e-05
A6G C10G A36G U47C | < 1e-05
A12G G63C | < 1e-05
A12U G41U A42G G51C | < 1e-05
C8A G66A | < 1e-05
G32A A36G U54C | < 1e-05
G37U A48C | < 1e-05
G9U C10U A33U U47G | < 1e-05
C11A A14C U31G U65G | 2.62e-05 ± 1.2e-05
A14G G35U U49A | < 1e-05
C16G U65A C71U | 0.000346 ± 8.7e-05
C11U G41U G43C A52G C68U | < 1e-05
U57G G62C A64U | < 1e-05
C8G U31A | < 1e-05

Variants of: B1
Assay: self-cleavage kobs at 160 uM GlcN6P; higher = faster cleavage; RNA array
Conditions: with glucosamine-6-phosphate
Outline: as §1

Variant | self-cleavage kobs at 160 uM GlcN6P [s⁻¹]
G7U G35U G66U U69C | < 1e-05
A6U G38U U47G | < 1e-05
A36C A64G | < 1e-05
A42U U49C | < 1e-05
A6G G9U G32C G40U U45A U47G U69C | < 1e-05
U46C C58U C67A | < 1e-05
G9C G32U A39C C71G | < 1e-05
A33G U47G A48G | < 1e-05
G13C G38A | < 1e-05
G7A C68G | < 1e-05
A12G G63C | < 1e-05
A6G C16U G60U G66U | < 1e-05
A15G A42C | < 1e-05
G9A A12U A33C G62U | < 1e-05
C58G U65A | < 1e-05
C8U C10U A12C G32A C61U G63A C67G C71G | < 1e-05
A33U A42C C50U | < 1e-05
C34G G38U G44C U49C | < 1e-05
G32C G38U G43A C67A | < 1e-05
G7A A14U G35U G44U A48C A53G C70U | < 1e-05
A12U C61A G63C C70U | 3.45e-05 ± 1.3e-05
U31A A42U C50G | < 1e-05
G37U A48C | < 1e-05
C8A G60A C68A | < 1e-05
A15U G38C | < 1e-05

Variant | self-cleavage kobs at 160 uM GlcN6P [s⁻¹]
C11A A12G G32U C50U | < 1e-05
A14U A15C A48C U56A C67A | < 1e-05
U30A G37U A48U C58A G66U | < 1e-05
C61U C71G | < 1e-05
G40A G41U A52G | < 1e-05
A6C G13U C68U | < 1e-05
A6U G32U G40U A42C U65G | < 1e-05
C11A A14C U31G U65G | < 1e-05
C34G U56C | < 1e-05
G35A C68U | < 1e-05
C8U A12U U30G A33U C61G | < 1e-05
G37C U45G U57A G60A | < 1e-05
U46A G60C G63A | < 1e-05
G38A U46A U47G A52G C61A | < 1e-05
C16G G41C G59A | < 1e-05
C8U G13U G43A C61G | < 1e-05
G7C A14C A53G | < 1e-05
G29U A42U A48U G62A | < 1e-05
U57G G62C A64U | < 1e-05
A42G G59U A64G | < 1e-05
U45C U54A G62U | < 1e-05
C8G U31A | < 1e-05
G13A A39G C68A | < 1e-05
C11U C16U G51C C70U | < 1e-05
C10A C34U G43C U56C A64C | < 1e-05
